Reference: a collection of fitness landscapes (doi:10.1016/j.celrep.2020.107928)
Over roughly 81,000 sequences, “one-hybrid fitness for binding NBS DNA” has its median near -0.1; the highest 2% begin near 0.36. The list shows a part of the results.

B1: Caulobacter ParB omega fusion; a variant is named by its letters at X, in order, B8GW30 (parent)
chain: MESVVVGEPGMSEGRRGLGRGLSALLGEVDAAPAQAPGEQLGGSREAPIEILQRNPDQPRRTFREEDLEDLSNSIREKGVLQPILVRPSPDTAGEYQIVAGERAWRAAQRAGLKTVPIMVRELDDLAVLEIGIIENVQRADLNVLEEALSYKVLMEKFERTQENIAQTIGKSXSHVANXMRLLXLPDEVQSYLVSGELTAXHARAIAAAADPVALAKQIIEGGLSVRETEALARKAPNLSAGKSKGGRPPRVKDTDTQALESDLSSVLGLDVSIDHRGSTGTLTITYATLEQLDDLCNRLTRGI

Variants of: B1
Test: one-hybrid fitness for binding NBS DNA (the Noc-binding site; scaled: cognate 1, non-cognate 0); higher = stronger binding
Settings: with NBS DNA site
Procedure, shortened: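 Fitness is the rescaled log change in variant-to-wild-type read ratio, measured by Illumina sequencing of plasmids before and after bacterial one-hybrid selection. The scale puts cognate at 1 and non-cognate at 0. Selection of Caulobacter ParB libraries, four specificity codons randomised, took place in E. coli USO with a HIS3 reporter, site 19 bp from the promoter, over 48 hours at 37°C on M9-minus-histidine with 0.1 mM IPTG and 5 mM 3-AT.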

| Variant | one-hybrid fitness for binding NBS DNA |
| --- | --- |
| WRPI | ≤ 0.2 |
| LMIW | ≤ 0.2 |
| NCFV | ≤ 0.2 |
| MVKC | ≤ 0.2 |
| PIMC | ≤ 0.2 |
| PKRI | ≤ 0.2 |
| PFMF | ≤ 0.2 |
| HSEN | ≤ 0.2 |
| PHLW | ≤ 0.2 |
| INSR | ≤ 0.2 |
| NKDR | ≤ 0.2 |
| KNML | ≤ 0.2 |
| NDNF | ≤ 0.2 |
| WPQR | ≤ 0.2 |
| RSFP | ≤ 0.2 |
| VVTF | ≤ 0.2 |
| VWFR | ≤ 0.2 |
| QWHF | ≤ 0.2 |
| PIHT | ≤ 0.2 |
| PPVI | ≤ 0.2 |
| LRCE | ≤ 0.2 |
| PRFG | ≤ 0.2 |
| AYRN | ≤ 0.2 |
| DRHM | ≤ 0.2 |
| TPCS | ≤ 0.2 |

| Variant | one-hybrid fitness for binding NBS DNA |
| --- | --- |
| RFET | ≤ 0.2 |
| HNKV | ≤ 0.2 |
| YPVT | ≤ 0.2 |
| KYTW | ≤ 0.2 |
| LASR | ≤ 0.2 |
| SQTG | ≤ 0.2 |
| RHQC | ≤ 0.2 |
| WALI | ≤ 0.2 |
| PRRV | ≤ 0.2 |
| YKKI | ≤ 0.2 |
| GMHR | ≤ 0.2 |
| ASTQ | ≤ 0.2 |
| CFYR | 0.286 |
| RMVE | ≤ 0.2 |
| ATDF | ≤ 0.2 |
| LAPI | ≤ 0.2 |
| SRCY | ≤ 0.2 |
| TVPC | ≤ 0.2 |
| PWVI | ≤ 0.2 |
| STRG | ≤ 0.2 |
| RWYN | ≤ 0.2 |
| DDSF | ≤ 0.2 |
| GIDR | ≤ 0.2 |
| WCYS | ≤ 0.2 |
| PMAS | ≤ 0.2 |

| Variant | one-hybrid fitness for binding NBS DNA |
| --- | --- |
| PIAM | ≤ 0.2 |
| PMAG | ≤ 0.2 |
| ADQS | ≤ 0.2 |
| GCMR | ≤ 0.2 |
| NGGN | ≤ 0.2 |
| CFGC | ≤ 0.2 |
| QYNE | ≤ 0.2 |
| LMDK | ≤ 0.2 |
| EDHG | ≤ 0.2 |
| YPVA | ≤ 0.2 |
| HYRW | ≤ 0.2 |
| LDKK | ≤ 0.2 |
| QQWT | 0.44 |
| PLHA | ≤ 0.2 |
| EVPS | ≤ 0.2 |
| NVPP | ≤ 0.2 |
| QCSP | ≤ 0.2 |
| FWQS | ≤ 0.2 |
| RGEF | ≤ 0.2 |
| RLCA | ≤ 0.2 |
| SHRD | ≤ 0.2 |
| QLYD | ≤ 0.2 |
| PHWR | ≤ 0.2 |
| RKKR | 0.768 |
| FRNG | ≤ 0.2 |

| Variant | one-hybrid fitness for binding NBS DNA |
| --- | --- |
| FLHG | ≤ 0.2 |
| NFDR | ≤ 0.2 |
| FSYS | ≤ 0.2 |
| QNIL | ≤ 0.2 |
| RRWW | ≤ 0.2 |
| SACS | ≤ 0.2 |
| GVNA | ≤ 0.2 |
| RCQQ | ≤ 0.2 |
| LHQE | ≤ 0.2 |
| RSIE | ≤ 0.2 |
| RQQD | ≤ 0.2 |
| INLC | ≤ 0.2 |
| NVKG | ≤ 0.2 |
| HLPF | ≤ 0.2 |
| DFYC | ≤ 0.2 |
| LNEM | ≤ 0.2 |
| TPKC | ≤ 0.2 |
| PDVG | ≤ 0.2 |
| ETCC | ≤ 0.2 |
| NVWA | ≤ 0.2 |
| VAHN | ≤ 0.2 |
| QCML | ≤ 0.2 |
